Here are results for 31 sequences from paper PMC12820563, “FoxP3 forms a head-to-head dimer in vivo and stabilizes its multimerization on adjacent microsatellites”.

This is one part of the list.

For this assay, the target named is T1, MBP-FoxP1dN (Mus musculus, UniProt P58462 326-579).
T1 sequence: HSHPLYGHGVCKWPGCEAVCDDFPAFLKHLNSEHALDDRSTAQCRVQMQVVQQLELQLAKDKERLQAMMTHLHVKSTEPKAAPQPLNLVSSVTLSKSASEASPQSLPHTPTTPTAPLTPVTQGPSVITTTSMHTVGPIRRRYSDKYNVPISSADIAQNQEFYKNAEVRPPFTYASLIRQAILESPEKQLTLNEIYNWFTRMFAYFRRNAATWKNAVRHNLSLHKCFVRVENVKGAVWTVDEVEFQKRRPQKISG
The assay can be described thus: PD-seq (MBP pull-down with sequencing); 20 mM Tris-HCl pH 7.5, 100 mM NaCl, 1.5 mM MgCl2, 0.4 uM protein, 0.1 uM dsDNA library, 30 min, room temperature, amylose pull-down; high values mean tight binding. The note with it: protein: recombinant; tags: His6-MBP; chain copies: 2; dsDNA, one strand shown. The method, boiled down:
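Binding is given as reads-per-million enrichment, pull-down over input, with replicates pooled. The bait was an N-terminus-lacking mouse FoxP3 or FoxP1 fragment with a His6-MBP tag, expressed in E. coli and used at 0.4 µM with 0.1 µM Klenow-filled degenerate double-stranded DNA library for 30 min at room temperature in Tris pH 7.5 buffer with NaCl and MgCl2. Amylose resin pull-down with three washes was followed by proteinase K release, PCR barcoding and Illumina sequencing.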
“GATGATTGTTCTCCCAGCTGATGAATTTCATTTTTCGAGTAAACAAATTTTCCTAATCTTTCTGTTCAAGCGCCATCTAC”: the binding signal is 0.973 RPM ratio (pull-down/input).
In the case of “GATGATTGTTCTCCCAGCTGATGAATTGACTCGGTCGAGTAAACAAATTTTCCTAATCTTTCTGTTCAAGCGCCATCTAC”, the binding signal was 0.898 RPM ratio (pull-down/input).
Consider “GATGATTGTTCTCCCAGCTGATGAATTGCCCTTCTCGAGTAAACAAATTTTCCTAATCTTTCTGTTCAAGCGCCATCTAC”, for which the binding signal is 0.864 RPM ratio (pull-down/input).
In the case of “GATGATTGTTCTCCCAGCTGATGAATTCAACAAGTCGAGTAAACAAATTTTCCTAATCTTTCTGTTCAAGCGCCATCTAC”, the binding signal was 1.07 RPM ratio (pull-down/input).
In the case of “GATGATTGTTCTCCCAGCTGATGAATTCCCGGCGTCGAGTAAACAAATTTTCCTAATCTTTCTGTTCAAGCGCCATCTAC”, the binding signal was 0.756 RPM ratio (pull-down/input).
For “GATGATTGTTCTCCCAGCTGATGAATTGTGACCTTCGAGTAAACAAATTTTCCTAATCTTTCTGTTCAAGCGCCATCTAC”, the binding signal was 1.17 RPM ratio (pull-down/input).
As to “GATGATTGTTCTCCCAGCTGATGAATTCGAGGCATCGAGTAAACAAATTTTCCTAATCTTTCTGTTCAAGCGCCATCTAC”, the binding signal was 0.964 RPM ratio (pull-down/input).
Consider “GATGATTGTTCTCCCAGCTGATGAATTTAGGACCTCGAGTAAACAAATTTTCCTAATCTTTCTGTTCAAGCGCCATCTAC”, for which the binding signal was 0.817 RPM ratio (pull-down/input).
Regarding “GATGATTGTTCTCCCAGCTGATGAATTAACATTCTCGAGTAAACAAATTTTCCTAATCTTTCTGTTCAAGCGCCATCTAC”, the binding signal is 0.945 RPM ratio (pull-down/input).
Regarding “GATGATTGTTCTCCCAGCTGATGAATTGCAATCCTCGAGTAAACAAATTTTCCTAATCTTTCTGTTCAAGCGCCATCTAC”, the binding signal was 1.2 RPM ratio (pull-down/input).
For the sequence “GATGATTGTTCTCCCAGCTGATGAATTTACTCAGTCGAGTAAACAAATTTTCCTAATCTTTCTGTTCAAGCGCCATCTAC”, the binding signal was 1.14 RPM ratio (pull-down/input).
Consider “GATGATTGTTCTCCCAGCTGATGAATTTCATATTTCGAGTAAACAAATTTTCCTAATCTTTCTGTTCAAGCGCCATCTAC”, for which the binding signal was 0.996 RPM ratio (pull-down/input).
Take “GATGATTGTTCTCCCAGCTGATGAATTATCTAGTTCGAGTAAACAAATTTTCCTAATCTTTCTGTTCAAGCGCCATCTAC”: the binding signal was 1.02 RPM ratio (pull-down/input).
On to “GATGATTGTTCTCCCAGCTGATGAATTAGGGTTGTCGAGTAAACAAATTTTCCTAATCTTTCTGTTCAAGCGCCATCTAC”, for which the binding signal is 1.03 RPM ratio (pull-down/input).
Next, “GATGATTGTTCTCCCAGCTGATGAATTCAATCGTTCGAGTAAACAAATTTTCCTAATCTTTCTGTTCAAGCGCCATCTAC”: 0.98 RPM ratio (pull-down/input).
Consider “GATGATTGTTCTCCCAGCTGATGAATTATGAACCTCGAGTAAACAAATTTTCCTAATCTTTCTGTTCAAGCGCCATCTAC”, for which the binding signal was 0.86 RPM ratio (pull-down/input).
For the sequence “GATGATTGTTCTCCCAGCTGATGAATTAATATTATCGAGTAAACAAATTTTCCTAATCTTTCTGTTCAAGCGCCATCTAC”, the binding signal is 1.5 RPM ratio (pull-down/input).
As to “GATGATTGTTCTCCCAGCTGATGAATTTACTAAATCGAGTAAACAAATTTTCCTAATCTTTCTGTTCAAGCGCCATCTAC”, the binding signal is 1.72 RPM ratio (pull-down/input).
In the case of “GATGATTGTTCTCCCAGCTGATGAATTGTTCGCGTCGAGTAAACAAATTTTCCTAATCTTTCTGTTCAAGCGCCATCTAC”, the binding signal is 1.08 RPM ratio (pull-down/input).
Next, “GATGATTGTTCTCCCAGCTGATGAATTTAGCTGCTCGAGTAAACAAATTTTCCTAATCTTTCTGTTCAAGCGCCATCTAC”: 0.974 RPM ratio (pull-down/input); “GATGATTGTTCTCCCAGCTGATGAATTCCGGGTCTCGAGTAAACAAATTTTCCTAATCTTTCTGTTCAAGCGCCATCTAC”: 0.675 RPM ratio (pull-down/input); “GATGATTGTTCTCCCAGCTGATGAATTATAATACTCGAGTAAACAAATTTTCCTAATCTTTCTGTTCAAGCGCCATCTAC”: 1.11 RPM ratio (pull-down/input).
As to “GATGATTGTTCTCCCAGCTGATGAATTGAAGGTTTCGAGTAAACAAATTTTCCTAATCTTTCTGTTCAAGCGCCATCTAC”, the binding signal was 0.835 RPM ratio (pull-down/input).
Take “GATGATTGTTCTCCCAGCTGATGAATTATAGATCTCGAGTAAACAAATTTTCCTAATCTTTCTGTTCAAGCGCCATCTAC”: the binding signal was 0.835 RPM ratio (pull-down/input).
The result for “GATGATTGTTCTCCCAGCTGATGAATTTGCAGCCTCGAGTAAACAAATTTTCCTAATCTTTCTGTTCAAGCGCCATCTAC” reads 0.906 RPM ratio (pull-down/input); that for “GATGATTGTTCTCCCAGCTGATGAATTGTAAAATTCGAGTAAACAAATTTTCCTAATCTTTCTGTTCAAGCGCCATCTAC”, 0.958 RPM ratio (pull-down/input).
As to “GATGATTGTTCTCCCAGCTGATGAATTAAGAAGATCGAGTAAACAAATTTTCCTAATCTTTCTGTTCAAGCGCCATCTAC”, the binding signal was 0.906 RPM ratio (pull-down/input).
Consider “GATGATTGTTCTCCCAGCTGATGAATTCTCAGCATCGAGTAAACAAATTTTCCTAATCTTTCTGTTCAAGCGCCATCTAC”, for which the binding signal was 1.04 RPM ratio (pull-down/input).
Next, “GATGATTGTTCTCCCAGCTGATGAATTGCGCGCTTCGAGTAAACAAATTTTCCTAATCTTTCTGTTCAAGCGCCATCTAC”: 1.06 RPM ratio (pull-down/input).
Take “GATGATTGTTCTCCCAGCTGATGAATTGACGCGCTCGAGTAAACAAATTTTCCTAATCTTTCTGTTCAAGCGCCATCTAC”: the binding signal is 1.04 RPM ratio (pull-down/input).
Next, “GATGATTGTTCTCCCAGCTGATGAATTCAGAGATTCGAGTAAACAAATTTTCCTAATCTTTCTGTTCAAGCGCCATCTAC”: 0.864 RPM ratio (pull-down/input).
